Results: the supplement of paper PMC11741623
The list shows a part of the results. Interaction screen of human proteins with wild-type SARS-CoV-2 proteins by split-DHFR complementation in yeast, 1 µg/mL methotrexate. Value = fitness of the pair (three or more lineages) minus that of the viral protein without a human partner, on a scale set by negative (0) and fused positive (1) controls, mean of up to three cultures; higher = more likely to interact. Active = false discovery rate below 0.05 (one-sided t-test) in at least one culture. Nearly all pairs are not hits, and differences among them are mostly noise (correlation between cultures about 0.3); most hits were seen in one culture only. Human sequences are the Swiss-Prot entries looked up by gene name; the clone may be another isoform. NSP2 values were corrected by the authors for a growth advantage. Listed are human proteins with a hit and a random twelfth of the others.

B1: ODF2, Q5BJF6 (protein)
chain: MSASSSGGSPRFPSCGKNGVTSLTQKKVLRAPCGAPSVTVTKSHKRGMKGDTVNVRRSVRVKTKVPWMPPGKSSARPVGCKWENPPHCLEITPPSSEKLVSVMRLSDLSTEDDDSGHCKMNRYDKKIDSLMNAVGCLKSEVKMQKGERQMAKRFLEERKEELEEVAHELAETEHENTVLRHNIERMKEEKDFTILQKKHLQQEKECLMSKLVEAEMDGAAAAKQVMALKDTIGKLKTEKQMTCTDINTLTRQKELLLQKLSTFEETNRTLRDLLREQHCKEDSERLMEQQGALLKRLAEADSEKARLLLLLQDKDKEVEELLQEIQCEKAQAKTASELSKSMESMRGHLQAQLRSKEAENSRLCMQIKNLERSGNQHKAEVEAIMEQLKELKQKGDRDKESLKKAIRAQKERAEKSEEYAEQLHVQLADKDLYVAEALSTLESWRSRYNQVVKEKGDLELEIIVLNDRVTDLVNQQQTLEEKMREDRDSLVERLHRQTAEYSAFKLENERLKASFAPMEDKLNQAHLEVQQLKASVKNYEGMIDNYKSQVMKTRLEADEVAAQLERCDKENKILKDEMNKEIEAARRQFQSQLADLQQLPDILKITEAKLAECQDQLQGYERKNIDLTAIISDLRSRIEHQGDKLEMAREKHQASQKENKQLSLKVDELERKLEATSAQNIEFLQVIAKREEAIHQSQLRLEEKTRECGTLARQLESAIEDARRQVEQTKEHALSKERAAQNKILDLETQLSRTKTELSQLRRSRDDADRRYQSRLQDLKDRLEQSESTNRSMQNYVQFLKSSYANVFGDGPYSTFLTSSPIRSRSPPA
B2: TEFM, Q96QE5 (protein)
chain: MSGSVLFTAGERWRCFLTPSRSSLYWALHNFCCRKKSTTPKKITPNVTFCDENAKEPENALDKLFSSEQQASILHVLNTASTKELEAFRLLRGRRSINIVEHRENFGPFQNLESLMNVPLFKYKSTVQVCNSILCPKTGREKRKSPENRFLRKLLKPDIERERLKAVNSIISIVFGTRRIAWAHLDRKLTVLDWQQSDRWSLMRGIYSSSVYLEEISSIISKMPKADFYVLEKTGLSIQNSSLFPILLHFHIMEAMLYALLNKTFAQDGQHQVLSMNRNAVGKHFELMIGDSRTSGKELVKQFLFDSILKADPRVFFPSDKIVHYRQMFLSTELQRVEELYDSLLQAIAFYELAVFDSQP
B3: PSG6, Q00889 (protein)
chain: MGPLSAPPCTQHITWKGLLLTASLLNFWNLPTTAQVIIEAKPPKVSEGKDVLLLVHNLPQNLTGYIWYKGQMTDLYHYITSYVVHGQIIYGPAYSGRETVYSNASLLIQNVTQEDAGSYTLHIIKRGDGTGGVTGYFTVTLYSETPKPSISSSNLNPREVMEAVRLICDPETPDASYLWLLNGQNLPMTHRLQLSKTNRTLYLFGVTKYIAGPYECEIRNPVSASRSDPVTLNLLPKLPMPYITINNLNPREKKDVLAFTCEPKSRNYTYIWWLNGQSLPVSPRVKRPIENRILILPSVTRNETGPYQCEIRDRYGGIRSNPVTLNVLYGPDLPRIYPSFTYYRSGENLDLSCFADSNPPAEYSWTINGKFQLSGQKLFIPQITTNHSGLYACSVRNSATGKEISKSMIVKVSETASPQVTYAGPNTWFQEILLL
B4: EBF1, Q9UH73 (protein)
chain: MFGIQESIQRSGSSMKEEPLGSGMNAVRTWMQGAGVLDANTAAQSGVGLARAHFEKQPPSNLRKSNFFHFVLALYDRQGQPVEIERTAFVGFVEKEKEANSEKTNNGIHYRLQLLYSNGIRTEQDFYVRLIDSMTKQAIVYEGQDKNPEMCRVLLTHEIMCSRCCDKKSCGNRNETPSDPVIIDRFFLKFFLKCNQNCLKNAGNPRDMRRFQVVVSTTVNVDGHVLAVSDNMFVHNNSKHGRRARRLDPSEGTPSYLEHATPCIKAISPSEGWTTGGATVIIIGDNFFDGLQVIFGTMLVWSELITPHAIRVQTPPRHIPGVVEVTLSYKSKQFCKGTPGRFIYTALNEPTIDYGFQRLQKVIPRHPGDPERLPKEVILKRAADLVEALYGMPHNNQEIILKRAADIAEALYSVPRNHNQLPALANTSVHAGMMGVNSFSGQLAVNVSEASQATNQGFTRNSSSVSPHGYVPSTTPQQTNYNSVTTSMNGYGSAAMSNLGGSPTFLNGSAANSPYAIVPSSPTMASSTSLPSNCSSSSGIFSFSPANMVSAVKQKSAFAPVVRPQTSPPPTCTSTNGNSLQAISGMIVPPM
B5: CELA2A, P08217 (protein)
chain: MIRTLLLSTLVAGALSCGDPTYPPYVTRVVGGEEARPNSWPWQVSLQYSSNGKWYHTCGGSLIANSWVLTAAHCISSSRTYRVGLGRHNLYVAESGSLAVSVSKIVVHKDWNSNQISKGNDIALLKLANPVSLTDKIQLACLPPAGTILPNNYPCYVTGWGRLQTNGAVPDVLQQGRLLVVDYATCSSSAWWGSSVKTSMICAGGDGVISSCNGDSGGPLNCQASDGRWQVHGIVSFGSRLGCNYYHKPSVFTRVSNYIDWINSVIANN

Target: SARS-CoV-2 NSP10
Assay: yeast fitness gain over the viral ORF with no human partner (scaled fitness); higher = more likely to interact
Description: (§1)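 Split mouse DHFR complementation in pooled diploid yeast: human ORFeome clones carry one fragment and viral ORFs the other; barcoded lineages compete in 1 µg/mL methotrexate and fitness is read by barcode sequencing in up to three cultures.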

Binder	yeast fitness gain
B1	inactive: -0.213
B2	inactive: -0.171
B3	inactive: -0.152
B4	inactive: -0.061
B5	inactive: -0.176

Target: SARS-CoV-2 NSP12
Assay: as above
Description: as §1

Binder	yeast fitness gain
B1	inactive: -0.0268
B2	inactive: -0.103
B4	inactive: -0.0813
B5	inactive: -0.182

Target: SARS-CoV-2 NSP13
Assay: as above
Description: as §1

Binder	yeast fitness gain
B1	inactive: -0.234
B2	inactive: -0.102
B3	inactive: -0.219
B4	inactive: -0.0532

Target: SARS-CoV-2 ORF10
Assay: as above
Description: as §1

Binder	yeast fitness gain
B1	inactive: -0.0319
B4	inactive: -0.0328

Target: SARS-CoV-2 ORF3A
Assay: as above
Description: as §1

Binder	yeast fitness gain
B1	inactive: -0.0629

Target: SARS-CoV-2 ORF6
Assay: as above
Description: as §1

Binder	yeast fitness gain
B1	inactive: 0.00481
B2	inactive: -0.0735
B3	inactive: -0.0907
B4	inactive: 0.054

Target: SARS-CoV-2 ORF8
Assay: as above
Description: as §1

Binder	yeast fitness gain
B1	inactive: -0.0301
B2	inactive: -0.128
B3	inactive: -0.678
B4	inactive: 0.0331
B5	inactive: -0.233

Target: SARS-CoV-2 ORF9B
Assay: as above
Description: as §1

Binder	yeast fitness gain
B1	inactive: 0.00503
B2	inactive: 0.0179
B3	inactive: -0.151
B4	inactive: -0.0844
B5	inactive: -0.0324

Target: SARS-CoV-2 NSP15
Assay: as above
Description: as §1

Binder	yeast fitness gain
B2	inactive: 0.0226

Target: SARS-CoV-2 NSP16
Assay: as above
Description: as §1

Binder	yeast fitness gain
B2	inactive: -0.0345

Target: SARS-CoV-2 NSP2
Assay: as above
Description: as §1

Binder	yeast fitness gain
B2	inactive: -0.391
B4	inactive: -0.158
B5	inactive: -0.0737

Target: SARS-CoV-2 NSP5
Assay: as above
Description: as §1

Binder	yeast fitness gain
B2	inactive: 0.0172
B3	inactive: -0.0989
B4	inactive: -0.0391
B5	inactive: 0.068

Target: SARS-CoV-2 NSP6
Assay: as above
Description: as §1

Binder	yeast fitness gain
B2	inactive: -0.174

Target: SARS-CoV-2 NSP7
Assay: as above
Description: as §1

Binder	yeast fitness gain
B2	inactive: -0.0449
B4	inactive: 0.161

Target: SARS-CoV-2 ORF3B
Assay: as above
Description: as §1

Binder	yeast fitness gain
B2	inactive: -0.0593
B4	inactive: -0.0464

Target: SARS-CoV-2 ORF7A
Assay: as above
Description: as §1

Binder	yeast fitness gain
B2	inactive: -0.0175
B4	inactive: 0.0638

Target: SARS-CoV-2 ORF7B
Assay: as above
Description: as §1

Binder	yeast fitness gain
B2	inactive: -0.0274
B3	inactive: 0.32

Target: SARS-CoV-2 S
Assay: as above
Description: as §1

Binder	yeast fitness gain
B2	inactive: -0.088
B4	inactive: 0.0164

Target: SARS-CoV-2 NSP8
Assay: as above
Description: as §1

Binder	yeast fitness gain
B4	inactive: -0.00444

Target: SARS-CoV-2 ORF9Bwu (the 73-codon ORF)
Assay: as above
Description: as §1

Binder	yeast fitness gain
B4	inactive: 0.122
